The campaign covered roughly 44,000 compounds. About 340 (0.77%) were called active. About 5% were inconclusive and are not listed. Calls follow the shape of the dose curve; as a rule, active = well fitted inhibition curve with a large enough effect; inconclusive = small, poorly fitted or top-dose-only effect; inactive = flat fitted curve, though single readings scatter. The list shows a part of the results.
Experiment: Acumen qHTS Assay for Inhibitors of the mTORC1 Signaling Pathway in MEF (Tsc2-/-, p53-/-) Cells: Sytravon;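 also: plate controls were DMSO for no effect and rapamycin for full effect; nearly all actives have a fitted effect of over 50% in size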
Details: phospho-rpS6 immunofluorescence/PI, 24 h; series mostly up to 38.3 µM; activity change, negative = inhibition: at the top concentration
How it was run: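 Compounds act on Tsc2-/-, p53-/- fibroblasts carrying an empty vector for 24 h before fixation and dual staining for phospho-S6 and DNA (propidium iodide). Values are percentages of cells above a rapamycin-defined pS6/PI threshold.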

Activity change, negative = inhibition, inactive:
Cc1cccc(N2CCN(C(=O)CS(=O)(=O)Cc3nc(-c4ccccc4C)oc3C)CC2C)c1 (configuration not stated) -20.7%
Cc1cccc(OCC(=O)Nc2nnc(S(=O)(=O)N3CCc4ccccc43)s2)c1 6.51%
O=C(Nc1ccc(Cl)cc1)C(NS(=O)(=O)c1cccs1)c1ccccc1 (configuration not stated) -16.1%
Cc1nc(-c2ccc(C)c(N3CCN(C(=O)Nc4cccc(Cl)c4C)CC3)c2)no1 -11.6%
CCOC(=O)C1CCCN(Cc2cn3c(-c4cccc(Br)c4)nnc3s2)C1 (configuration not stated) -26.1%
Cc1ccc(-n2c(Cc3ccccc3)nnc2SCc2nc(-c3cccs3)no2)cc1C 2.19%
CCC(C(=O)Nc1cc(F)ccc1F)n1nc(C)c2c(C)n(-c3ccc(C)cc3)nc2c1=O (configuration not stated) -2.82%
CCN(C(=O)c1cn(CC)c(=O)c2cc(OC)c(OC)cc12)c1ccccc1F 1.83%
Cc1cccc(NC(=O)C(=O)NCCc2csc(-c3ccc(F)cc3)n2)c1C -1.18%
CCc1ccccc1NC(=O)c1noc2c1CC(C(C)(C)C)CC2 (configuration not stated) -24.9%
COc1ccc(CCC(=O)NC2CC(=O)N(c3ccc(OC)cc3)C2)cc1 (configuration not stated) -7.62%
Cc1cc(C)c2c(=O)cc(CSc3n[nH]c(C)n3)[nH]c2c1 -15.6%
Cc1cc(N2CCCCC2)nc2ccc(NC(=O)CCC(=O)N3CCN(c4ccccc4)CC3)cc12 -28%
COc1cc(C(=O)Nc2ccccc2-c2nc(-c3ccc(C)cc3)no2)cc(OC)c1OC 0%
COc1ccc(NC(=O)CN2C(=O)c3cccnc3Sc3ccccc32)cc1OC -0.23%
CC1=C(C(=O)Nc2cc(Cl)ccc2C)C(c2cccs2)n2ncnc2N1 (configuration not stated) -3.64%
Cc1cccc(N2CCN(C(=O)c3ccc(Nc4nc5ccccc5n5nnnc45)cc3)CC2)c1C -0.938%
COc1cc(C2C(=O)N(C3CCCCC3)CC(=O)N2C2CCCCC2)ccc1OC(C)C (configuration not stated) 4.98%
CCSc1nc(-c2ccccc2F)nc2c1Cc1c(CO)cnc(C)c1O2 -11.9%
CC1CCN(c2nc3ccc(C(=O)N4CCN(c5ccccc5)CC4)cc3s2)CC1 -8.53%
COc1cccc(N2CCN(C(=O)c3nn(C)c4c3CSc3ccc(C)cc3-4)CC2)c1 2.54%
CCC(=O)N1CCc2cc(CNC(=O)c3ccc(F)cc3)ccc21 -2.08%
Cc1ccc(-c2nc3sccn3c2Nc2ccc(C)c(C)c2)cc1 -8.87%
O=C(NCc1ccccc1F)c1ccc(CSc2nc3cccnc3n2Cc2ccccc2)cc1 -8.32%
Cc1nn2c(=O)cc(COC(=O)c3ccccc3NC(=O)COc3ccccc3C)nc2s1 10.8%
COc1ccc(OC)c(NC(=O)[C@H](CSCc2ccccc2)N2Cc3ccccc3C2=O)c1 -6.01%
CCOC(=O)c1cc(OC(=O)c2ccccc2Cl)n(-c2ccccc2)n1 -1.03%
COC(=O)c1cc2sc(Cl)cc2n1CC(=O)Nc1cc(C)cc(C)c1 -1.21%
COc1ccc(OC)c(CNc2nc3ccc(C)cc3n3nnnc23)c1 -6.89%
COC(=O)c1cc2occc2n1CC(=O)Nc1ccc(N(C)C)cc1 -6.57%
Cc1ccc(CNC(=O)Cn2c(=O)n(-c3ccc(C)cc3)c(=O)c3c2c2cc(C)ccc2n3C)cc1 -0.185%
COC(=O)c1c(N)n(-c2ccc(OC)c(OC)c2)c2nc3ccccc3nc12 -12.8%
Cc1ccc(CNC(=O)C(=O)NCC(c2ccco2)S(=O)(=O)c2ccccc2)cc1 (configuration not stated) 1.18%
N#Cc1nc(-c2ccc(COc3ccccc3)o2)oc1N1CCCCC1 -14.9%
Cc1ccccc1NC(=O)Cn1c(=O)n(Cc2ccccc2)c(=O)c2c(C)c(C)sc21 5.31%
Cn1c(=O)cc(SCC(=O)N2CCN(c3ccccc3F)CC2)c2ccccc21 -15.8%
CCC(Sc1nnc2c3ccccc3n(CC)c2n1)C(=O)Nc1nnc(C(C)C)s1 (configuration not stated) 2.23%
COc1ccc(-c2cc3nc(C4CCN(C(=O)OC(C)(C)C)CC4)c(C(=O)Nc4cc(C)cc(C)c4)cn3n2)cc1 -7.54%
CCCN1CCN(CCCNC(=O)c2ccc3nc(Cc4ccccc4)oc3c2)CC1 0.419%
CCOc1ccc(NC(=O)CC2C(=O)N(c3cccc(C)c3)C(=O)N2Cc2cccs2)cc1 (configuration not stated) -0.0811%
CCOc1ccc(CN(CCc2ccc3c(c2)OCO3)Cc2cc(OC)c(OC)cc2OC)cc1 -16.8%
CCCCN1CC(c2nc3ccccc3n2CCCCOc2cccc(C)c2C)CC1=O (configuration not stated) 0.108%
COc1cc(NC(=O)CCc2c(C)nn(-c3ccc(N4CCCCC4)nn3)c2C)cc(OC)c1OC 0.0271%
COc1ccc(C)cc1NC(=O)c1cc(S(=O)(=O)N2CCCCC2)c[nH]1 -8.61%
Cc1cc(-n2c(C)nc3ccccc3c2=O)ccc1NC(=O)c1ccccc1[N+](=O)[O-] 0.811%
Cc1cc(C)cc(NC(=O)CCCc2nc(-c3ccco3)no2)c1 -5.44%
CCCc1cc(=O)[nH]c(Nc2cc(C)ccc2OC)n1 -6.18%
CC(Sc1nnc2ccc3ccccc3n12)C(=O)Nc1ccc(Cl)cc1 (configuration not stated) 0.205%
COc1cccc(CCNC(=O)c2c(O)nc3c(C)cccn3c2=O)c1 0.298%
Cc1nc2ccn(Cc3ccccc3)c(=O)c2cc1C(=O)N1CCN(c2ccc(F)cc2)CC1 0.512%
CCc1ccc(NC(=O)CC2C(=O)N(c3cccc(OC)c3)C(=O)N2Cc2ccc(F)cc2)cc1 (configuration not stated) -3.55%
CCOC(=O)c1cnc2cc(-c3ccc(OCC)cc3)nn2c1-c1ccccc1 -5.53%
COCCc1nn2c(=O)cc(COC(=O)C(c3ccccc3)c3ccccc3)nc2s1 -8.54%
Cc1cc(NC(=O)n2ncc3c(C)cccc32)ccc1Br 3.57%
CCc1ccc(NC(=O)CC2C(=O)N(c3cccc(C)c3)C(=O)N2Cc2ccc(F)cc2)cc1 (configuration not stated) -8.58%
COc1ccc(NC(=O)CSc2nccn2Cc2ccc3c(c2)OCO3)cc1 -1.03%
COc1ccc(C)cc1NC(=O)C(=O)NCC(c1cccnc1)N1CCc2ccccc21 (configuration not stated) 12.6%
Cc1ccc(-n2c3c(cc(C(=O)Nc4ccccc4C(N)=O)c2=O)C(=O)CC(C)(C)C3)cc1 1.58%
CCOc1ccccc1NC(=O)c1c(NC(=O)COc2ccccc2)sc2c1CCCC2 6.14%
Cc1cc(C)c(NC(=O)CSc2ccc(-c3ccccn3)nn2)c(C)c1 -3.66%
CN(C)CCNC(=O)CN1C(=O)COc2ccc(S(=O)(=O)N3CCCC3)cc21 -0.499%
COc1ccc(C2=Nc3ccccc3NC(c3cccs3)=N2)cc1 1.89%

Source: PubChem BioAssay AID493208 (National Center for Advancing Translational Sciences (NCATS), 2011)
